Data on nine molecules can be found in the supplement of paper PMC4604168 (melanoma cell lines).

The list shows a part of the results. Repeats are few or missing, and single values can be far off.
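Further: cells treated in 1,536-well plates, then fixed and DAPI-stained, with nuclei counted from automated high-throughput microscope images.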

The test system of this test is A101D. The test can be described thus: cell count relative to DMSO control; melanoma cells; higher = more viable cells. Particulars: library dose: standard library concentration; 72 h.
With `O=c1[nH]nc(Sc2ncc([N+](=O)[O-])s2)n1-c1ccc2c(c1)OCCO2` + O=C(O)[C@@H]1[O][Sb](=[O])([O][Sb]2(=[O])[O][C@H]([C@H](O)CO)[C@H](O)[C@H](C(=O)O)[O]2)[O][C@H]([C@H](O)CO)[C@@H]1O [stibogluconate] (first compound 1 µM, partner dose 10 µM), the cell count is 91.2%. The result for `COc1cc(Nc2ncc(F)c(Nc3ccc4c(n3)NC(=O)C(C)(C)O4)n2)cc(OC)c1OC` [Tamatinib] + NC(=O)Nc1cc(-c2cccc(F)c2)sc1C(=O)N[C@H]1CCCNC1 [AZD7762] (first compound 2 µM, partner dose 0.1 µM) reads 30.6%. With `COc1cc(Nc2ncc(F)c(Nc3ccc4c(n3)NC(=O)C(C)(C)O4)n2)cc(OC)c1OC` [Tamatinib] + OCCn1cc(-c2cnc3nnn(Cc4ccc5ncccc5c4)c3n2)cn1 [PF04217903] (first compound 2 µM, partner dose 5 µM) the figure was 30.1%; with `O=c1[nH]nc(Sc2ncc([N+](=O)[O-])s2)n1-c1ccc2c(c1)OCCO2` + C[C@]1(O)C[C@@H](c2nc(-c3ccc4ccc(-c5ccccc5)nc4c3)c3c(N)nccn32)C1 [OSI906] (first compound 1 µM, partner dose 2 µM), 90.5%.

Consider `O=c1[nH]nc(Sc2ncc([N+](=O)[O-])s2)n1-c1ccc2c(c1)OCCO2` + Cc1ccc(Nc2nccc(N(C)c3ccc4c(C)n(C)nc4c3)n2)cc1S(N)(=O)=O [Pazopanib] (first compound 1 µM, partner dose 2 µM), for which the cell count turned out to be 77%. The result for `COc1cc(Nc2ncc(F)c(Nc3ccc4c(n3)NC(=O)C(C)(C)O4)n2)cc(OC)c1OC` [Tamatinib] + O=C(Nc1cccc(Cl)c1)Nc1ncc(CCNc2ncnc3ccsc23)s1 [SNS314] (first compound 2 µM, partner dose 0.004 µM) reads 37.1%; that for `CC1(C)NC(=O)N(c2ccc([N+](=O)[O-])c(C(F)(F)F)c2)C1=O` [nilutamide] + Cc1cc(N2CCOCC2)cc2[nH]c(-c3c(NC[C@@H](O)c4cccc(Cl)c4)cc[nH]c3=O)nc12 [BMS536924] (first compound 5 µM, partner dose 1 µM), 97.8%; that for `O=c1[nH]nc(Sc2ncc([N+](=O)[O-])s2)n1-c1ccc2c(c1)OCCO2` + NC(=O)c1ccc(N(C(N)=O)c2c(F)cccc2F)nc1-c1ccc(F)cc1F [VX702] (first compound 1 µM, partner dose 2 µM), 103%. For `O=c1[nH]nc(Sc2ncc([N+](=O)[O-])s2)n1-c1ccc2c(c1)OCCO2` + Cc1cc([N+](=O)[O-])ccc1NS(=O)(=O)c1cc(Cl)ccc1Cl [FH535] (first compound 1 µM, partner dose 5 µM), the cell count worked out at 68.6%.
